The supplement of paper PMC11417369
Some of the results follow.

Tested on: PfHDP1 homeodomain (GST-tagged)
Assay: gcPBM binding intensity (ln(normalized median fluorescence intensity)); higher = stronger DNA binding
In short: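 Using an Agilent 4 × 180k array, primer-extended double-stranded 36-bp intergenic genomic probes and negative controls were exposed for 1 h to GST-fused P. falciparum DNA-binding domains expressed in E. coli. Binding was carried out in 1× PBS with 1% milk, 0.2 mg/ml BSA, 0.5% salmon testes DNA and 0.03% Triton X-100, and protein was detected with Alexa488 anti-GST antibody and a 488 nm scan. Binding intensity is the highest Masliner-normalised natural-log median intensity across replicate spots of either probe orientation.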

Sequence | gcPBM binding intensity (ln)
TAATAATATATAAAAAGTACATAACAAGATATGAAA [XGTACX_site4921] | 6.39
ATATATTTTTTTTTTTCACACATTAGGATTCATATA [CACACA_site5758] | 6.59
GAAAATAACTAAAATTGTACAAAGAAACATATATTT [XGTACX_site6484] | 6.75
AGAAAAAAATAATCATCACACACGGAGAATGTCCAA [CACACA_site2314] | 6.28
TATTAAAGCACCCATGCACACACACTAAGGAAAAGA [CACACA_site7961] | 8.48
TATATATATCTGTATACACACATACAAATATGTAAA [CACACA_site5950] | 6.71
GATATTCATTATATATGTACATATATGTAATATATA [XGTACX_site2210] | 6.57
TTTTGTTAAAAAGATGTATATTTTATAAATATTTAT [CACACA_negctrl_site101] | 5.95
AAATAAAATAAATAATATAAAATAATATATAAAAAA [CACACA_negctrl_site1777] | 6.15
CACAAACAAAAACACACACACACACCGACAAAAATG [CACACA_site5362] | 6.79
TTCTTTCTAGAATATTGTACATATATTGTTATTATA [XGTACX_site8425] | 6.61
AGAAAGAAGATATATACACACAAAAAAAGATATATA [CACACA_site6779] | 6.75
TATAAATATTTATACACACACACATTAATACCTATA [CACACA_site7604] | 7.07
AAAAGAAGATAATACAGTACAGAATAATATAAAATA [XGTACX_site5962] | 6.51
ATAAGAATCATATTTAAACACACATACATATATATA [CACACA_site9106] | 6.92
AAAAAAAAAAAATACACACACATAAAAAAAAAAATA [CACACA_site1858] | 6.54
ATTATATTAACAATGACATGCAATTCTTAATCCTTA [TGCATGCA_site648] | 6.58
ATTAAATAAACCATTACACACTTTTATGTTTTGAAA [CACACA_site1143] | 6.56
TTTTTATTGGTGAATACACACGTATATATATATTAT [CACACA_site8756] | 7.12
AAAAAAAAATTGTGTACACATAATTATATCATATGT [CACACA_site4500] | 6.76
ATGGATAATAAGTTTACACACAAAAAAAAAGAAAAA [CACACA_site861] | 6.42
ATTTAAAAAATATATTGTACATATTTTATTATGTTT [XGTACX_site2984] | 6.4
TACAGTTTTTCTTTGAATTTATCAAGTTTTTTTCCC [XGTACX_negctrl_site60] | 6.59

Sequence | gcPBM binding intensity (ln)
TAGTTACCTTAATATTGTACTTTTCTTTCATATATG [XGTACX_site1309] | 6.47
CACTAAATAAGGAAAGTGCATAAAATAAAGGTTATA [GTGCAC_site9793] | 7.99
GTGTCAAATTTTATAACACACAAAAGGTTATATAAG [CACACA_site7839] | 6.3
ATAGTTTCTGGTAGCTGTACGAGTCGTAGAGTGCAG [XGTACX_site2022] | 6.83
GTCGAGGATATATAAAGTACATATATATATATGATA [XGTACX_site1128] | 6.41
TAATGTATCTAAAATTGTACAAATATAAATATAAAT [XGTACX_site2764] | 6.54
CATACATATAAACACACACACACACCCACCCACAAA [CACACA_site8059] | 7.88
TAGTTAGCCCAAGGGGTGCTAATTACTATCTAAATA | 5.8
TATAGAAGCAAATTATGTACACAATATGGAAAATCA [XGTACX_site3345] | 7.04
AACACCAATTCATATGCACACACATCTGCATATTAT [CACACA_site8523] | 9.74
TTTATAAATATTCTCACACACTTTTTATTTTAACAA [CACACA_site6454] | 6.4
ATGAATAAATAAGACACACACGAAAATAAGTAAAAA [CACACA_site4216] | 7.43
TATTTTGATTATTCAGTGTATAAATATATATATATA [CACACA_negctrl_site545] | 8.78
TATTTATACCTATACACACACACACGGATATTTATA [CACACA_site7123] | 7.03
ATATGCTTATTGTAAAGTACATTATTATTTTTCCTA [XGTACX_site5479] | 6.29
AATTAACAAAAACACACACACACACCGACAAAAAAA [CACACA_site4444] | 6.81
GATAAAATCACTGGTGCATGTAGATATATAATATTA [TGCATGCA_site589] | 8.28
TACAAATATATATGCACACACATATACATACAGATA [CACACA_site5238] | 9.83
CATATATACGCATACACACACACACCCACACCCACA [CACACA_site1725] | 7.11
TGATGAAAATCTACATGAATGTTTTTATATCTATAT [GTGCAC_negctrl_site139] | 5.92
AATAAATATATACATTGTACATATATAATATATATA [XGTACX_site1458] | 6.63
TAAATTATAATATGCACACAAAATGTTATATTAAAA [CACACA_site376] | 9.55
TATATATATTTTGGCTGTACATCAGCGTATATTTTT [XGTACX_site3233] | 6.18

Sequence | gcPBM binding intensity (ln)
CCTATCCATGCATATACACACATATCTATTTATATA [CACACA_site6886] | 7.5
AAAAAAAAACAAAAAAGTACAAAATAAAAATACGTT [XGTACX_site4566] | 6.62
CTCTTCATATATAATTGTACACACAAAAACGACATT [XGTACX_site4287] | 7.28
ATTCTATATGAAAAATGTACAAATAAAAATTCTAAG [XGTACX_site8900] | 6.47
CCAATGTTTTCTTGTGTACACATCATTAAAGAAAAA [CACACA_site5300] | 7.41
CACGCATACAGACACACACACACACCGATATATATA [CACACA_site8113] | 7.12
CATGAAAATATTATGTGTACTTAATGCACATTCAAA [XGTACX_site1952] | 9.56
ATTTACCTATATATTTGTACTTACATAATGCTACCT [XGTACX_site2693] | 6.97
AATATATTGTTTCCTGATATTAAATTCAATTTAATG [GTGCAC_negctrl_site22] | 6.52
TAAAGAGAGACATCAACACACATACGTATGTATAGA [CACACA_site4896] | 6.66
TAAAAAAAAATATATAAACACACATATTTATATACA [CACACA_site8469] | 6.08
AAATTATATACCACAGTGCAAAAGGCAGGTATACGT | 9.18
TATTATTTTAAGATTGTTTATGTAAAGAATTATGAA [CACACA_negctrl_site445] | 6.02
TTTTTTTTTTTTTGCACACACATATATAAATATATA [CACACA_site3949] | 9.41
TATATTGCAAAAAGTACACACATAAATAAATACATA [CACACA_site6589] | 9.04
GTAGAGAAAAAAATGTGGACACAAAAAATAAAAAGG [XGTACX_site4058] | 7
CAGGAGAGAAAATATCGTACAAGCAAAAATAAGTGG [XGTACX_site8557] | 6.91
ATAAATATTATTTTACGTACATATTTATGAAGTATT [XGTACX_site8746] | 6.13
AAATTATAAAAATGTAGTACAGACAATATATTCGTA [XGTACX_site8307] | 6.72
GTTTATATGTTCATAGTGCATATATGTTGATTTATT | 8.56
TATAAAAAAAAAAAAAAAAAAAAAAAAAAAAAAAAA [TGCATGCA_negctrl_site42] | 6.37
TTTTTTTTTTTTTACTGTACTTAATAAGATTGAATA [XGTACX_site2384] | 6.35
AGTGAATATTACGAAACACACAAAAAAATACATTTC [CACACA_site511] | 6.55

Sequence | gcPBM binding intensity (ln)
TAACTTAATAAAAAAAGTACATATATTTTTAATAAA [XGTACX_site2707] | 5.9
AAATATAATAATACATTGCACATATATTATATATAT [TGCATGCA_negctrl_site611] | 9.33
TGTAATAATCTTCATTTCTTTTTTTTTTTTTTTTGT [CACACA_negctrl_site1388] | 5.9
CTACACACTTATAAATGTACAGGATTTAAGTATATG [XGTACX_site8245] | 6.36
AGTAGTCTGGAGAAGAGTACATAGTATCTGGTAGCT [XGTACX_site2017] | 6.4
TATTTATTTATTTTGTTATAATTAAAATGGATACAT [XGTACX_negctrl_site387] | 6.28
ATAATACCAGAATAGATTTAAATGAATATTTTATTT [CACACA_negctrl_site476] | 5.91
TATAACAAATAAAAATGTACATATATATAATATATA [XGTACX_site6173] | 6.53
ATCTTATCATTTTAAAGTACATAATTAATTCTTTTT [XGTACX_site3999] | 6.69
ATGATATATTTAATAGTGCACTAATTAAAATTATTA [GTGCAC_site9418] | 10.8
TACAGTAAAAATAGTTGTACTTGTTTATTTCTTCTT [XGTACX_site7674] | 6.07
AAAAGGATATATGAAAGTACAAAGGTATAGTATATT [XGTACX_site7385] | 6.91
TTTTGATATATGAATATTAAGTTATATAATATTTTA [TGCATGCA_negctrl_site39] | 6.18
ATGTGTTTGTATATATGTACATATTTATGTTATTTC [XGTACX_site6960] | 7.28
TATATATATAAATACACACACACAAAAAAAAAAAAA [CACACA_site4930] | 6.82
AATTTAATTGTGAGAGTGCGTACTGCTCCACATATA | 7.21
AAAAAAAAAAAAAAAAAAAAAAAAAAATGAGATACA [GTGCAC_negctrl_site160] | 7.11
TATTCAAAACGGTATTGTACAAATTTTATAATTTAA [XGTACX_site6928] | 6.3
TGAACATTATAGAAAAGTACTTAGTTTTTAAAAAGA [XGTACX_site6864] | 6.75
TATAAACGCACCTACACACACAACGTAAATGCATTG [CACACA_site7120] | 8.87
